# Measured values from PubChem BioAssay AID686979 (National Center for Advancing Translational Sciences (NCATS), 2013).
# Among all 420,000 compounds or so, about 50,000 (12%) were called active. The shares of active, inactive and inconclusive entries below differ from those in the screen. The call rests on the fitted dose curve; in most records, active means well fitted inhibition curve with a large enough effect; inconclusive means small, poorly fitted or top-dose-only effect; inactive means flat fitted curve, though single readings scatter. Potencies of inconclusive entries are left out as doubtful fits.
# Experiment: qHTS for Inhibitors of human tyrosyl-DNA phosphodiesterase 1 (TDP1): qHTS in cells in presence of CPT; further: nearly all actives have a fitted effect of over 55% in size
# Conditions: chicken DT40 Tdp1-/-;hTDP1 cells + 20 nM CPT, ATP luminescence, 48 h; activity change, negative = growth inhibition: at 46.2 µM (top of the series)
# How it was run: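 Cell growth measured by CellTiter-Glo luminescence after a minimum 48 h, 37 C compound exposure with 20 nM CPT in Tdp1-knockout DT40 cells stably expressing hTDP1, seeded 400/well; qHTS titration format.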
# On the % scale 0 is the no-effect control and ±100 the full control effect; potency means the concentration at half of the fitted maximal effect; tags describe the fitted curve by direction and shape.
SMILES,Potency,"activity change, negative = growth inhibition"
COC(=O)Cc1ccc(NC(=S)N2CCN(C)CC2)cc1,inactive,
COc1ccc(Br)cc1CNc1ccc2[nH]c(=O)[nH]c2c1,inactive,
COCC(=O)N1CCC2(CC1)CN(c1cccc(-c3ccccc3)c1)C2,"inconclusive [inhibitor, single point]",
CCOn1c(=O)c(-c2cccc([N+](=O)[O-])c2)[n+]([O-])c2ccccc21,inactive,
CCc1nc2ccc(C(=O)NCCCN3CCN(c4ccccc4F)CC3)cc2nc1CC,"inconclusive [inhibitor, single point]",
CCOC(=O)C1CCN(C(=O)c2cccnc2Oc2ccc(Cl)cc2)CC1,"inconclusive [inhibitor, single point]",
COc1ccc(-n2c(SC3CCOC3=O)nc3ccccc3c2=O)cc1OC (stereo unspecified),inactive,
COC(=O)c1cccc(C23CC4(C2)[C@H](CN(Cc2ccc(-c5ccccc5)cc2)[C@@H]4c2ccccc2)C3c2ccc(Cl)nc2)c1 (stereo partly specified),"inconclusive [inhibitor, single point]",
C/C(=N/NC(=O)c1cccs1)c1c(C)[nH]n(-c2nc3ccccc3s2)c1=O,active: 3.66 µM,
CC(C)c1ccc(NC(=O)CSc2nnc(-c3ccccc3)n2C)cc1,inactive,
Cc1cnc(CNc2cc(-c3ccccc3C)ncn2)cn1,inactive,
COc1cccc2cc(-c3nc(Cl)c4c5c(sc4n3)CC(C)CC5)c(=O)oc12 (stereo unspecified),inactive,
CCC(C)C(NC(=O)c1ccccc1NC(=O)c1ccco1)C(=O)NNC(=O)c1ccc(OC)cc1 (stereo unspecified),"inconclusive [inhibitor, single point]",
CC(C1CC1)N(C(=O)c1ccccc1[N+](=O)[O-])c1ccccc1 (stereo unspecified),active: 20.6 µM,
COC(=O)c1cccc(S(=O)(=O)N2CCC(NC(=O)Nc3cccc(F)c3)CC2)c1,inactive,
CCOc1cc(C(=O)NCCc2ccc(S(N)(=O)=O)cc2)cc(OCC)c1OCC,inactive,
Cn1cccc1C(=O)N1CCC2(CCN(Cc3ccc(C#N)cc3)CC2)CC1,inactive,
COc1cc(NC(=O)C2CC(c3cccc(Br)c3)=NO2)cc(OC)c1OC (stereo unspecified),"inconclusive [inhibitor, partial curve, poor fit]",
CCc1ccc(NC(=O)Cn2c(=O)n(Cc3ccccc3)c(=O)c3oc4ccccc4c32)cc1,"inconclusive [inhibitor, single point]",
COc1ccc(NC(=O)CSc2nc3c(c(=O)[nH]2)CN(Cc2ccccc2)CC3)cc1Cl,"inconclusive [inhibitor, single point]",
CCOC(=O)c1c(N)sc(C(O)(C(F)(F)F)C(F)(F)F)c1-c1ccc(OC)cc1OC,,inconclusive: -36.4% [inhibitor]
Cc1cc(Br)cn2c(Cc3ccsc3)c(C(C)(C)C)nc12,"inconclusive [inhibitor, single point]",
CS(=O)(=O)c1ccc2nc(NC(=O)c3ccc(N4CCCC4=O)cc3)sc2c1,inactive,
COc1ccccc1N1CCN(C(=O)C(NS(=O)(=O)c2cccs2)c2ccccc2)CC1 (stereo unspecified),"inconclusive [inhibitor, single point]",

SMILES,Potency,"activity change, negative = growth inhibition"
Cc1ccc(S(=O)(=O)c2cn(C)c3cc(N4CCCC4)c(F)cc3c2=O)c(C)c1,"inconclusive [inhibitor, single point]",
Cc1cccc(C)c1NC(=O)C1(C)CN(S(C)(=O)=O)CC(=O)N1CCCN1CCOCC1 (stereo unspecified),inactive,
Cc1nnc(SCCn2c(N3CCN(C)CC3)nc3c2c(=O)n(C)c(=O)n3C)s1,inactive,
CCOc1ccc(N/C(C)=C\C(=O)c2ccc3c(c2)OCCO3)cc1,inactive,
O=C1C=C(Nc2ccc(Cl)cc2Cl)CC(c2ccco2)C1 (stereo unspecified),active: 3.66 µM,
CC(C)Nc1cc(C(C)(C)C)nc2c(-c3ccccc3)cnn12,inactive,
Cc1ccc(C)c(OCCC(=O)Nc2cccc(S(=O)(=O)N3CCCC3)c2)c1,"inconclusive [inhibitor, single point]",
C=CCNc1nc(N(c2ccccc2)c2ccccc2)nc(-n2ccnc2)n1,"inconclusive [inhibitor, partial curve, poor fit]",
COc1cccc(CSc2nnc(CSc3nc4nc(C)cc(C)n4n3)s2)c1,"inconclusive [inhibitor, single point]",
CCOc1ccc(N2C(=O)Nc3ccccc3C2(O)C(=O)N2CCN(c3ccccn3)CC2)cc1 (stereo unspecified),,inconclusive: -0.632% [inhibitor]
CCN(CC)C(=O)Oc1cc(=O)n2c3c(cccc13)CCC2,"inconclusive [inhibitor, single point]",
O=C(NC1=NCCS1)c1cc(-c2ccc(F)cc2)nc2ccccc12,"inconclusive [inhibitor, full curve, poor fit]",
Cc1cccc2nc(CSc3ccccc3N)cn12,inactive,
Cc1ccc(-n2cc(C(=O)c3ccc(N4CCN(C)CC4)cc3)nn2)cc1Cl,inactive,
COc1ccc(N(CC(=O)Nc2ccc(OC)c(OC)c2)S(=O)(=O)c2ccccc2)cc1Cl,"inconclusive [inhibitor, single point]",
O=C(NCc1ccccc1)[C@@H]1CCCN1C(=O)[C@@H]1CCCN1C(=O)c1ccc(Cl)cc1Cl,"inconclusive [inhibitor, partial curve]",
CCc1ccc(NC(=O)c2cnn(-c3c(C)cccc3C)c2C2CCNCC2)cc1,"inconclusive [inhibitor, single point]",
O=C(NC(=S)Nc1cccc2ncccc12)c1ccccc1,"inconclusive [inhibitor, partial curve, poor fit]",
CCOc1cc(C(=O)Nc2c(NC)c3ccccc3oc2=O)cc(OCC)c1OCC,inactive,
CCC(c1nnnn1-c1c(C)cccc1C)N1CCN(C/C=C/c2ccccc2)CC1 (stereo unspecified),active: 6.51 µM,
CCOCCCNC(=O)c1ccc(/C=C2\Oc3ccccc3N(C)C2=O)cc1,"inconclusive [inhibitor, single point]",
CCn1c(=O)cc(OCC(=O)NCc2ccc(F)cc2Cl)c2ccccc21,"inconclusive [inhibitor, single point]",
COc1ccc(CN2C(=O)N(c3ccc(F)cc3)C(=O)C2CC(=O)Nc2ccccc2)cc1 (stereo unspecified),active: 13 µM,
O=S(=O)(c1ccc(F)cc1)c1nc(-c2ccccc2F)oc1N1CCCCC1,"inconclusive [inhibitor, single point]",

SMILES,Potency,"activity change, negative = growth inhibition"
CCCNC(=O)C1CCN(c2cc(C)nc3c(-c4ccc(OC)c(OC)c4)c(C)nn23)CC1,"inconclusive [inhibitor, single point]",
CCOCCCNC(=O)c1c(NC(=O)c2cc(=O)c3cc(C)c(C)cc3o2)sc2c1CCC2,inactive,
CC(=O)OC(C(=O)NC1CCCCC1)c1ccc(Cl)c(Cl)c1 (stereo unspecified),inactive,
C/C(CC(=O)Nc1ccccn1)=N\NC(=O)c1cnccn1,inactive,
COc1ccc(/C=N/n2cnc3c([nH]c4ccc(F)cc43)c2=O)cc1CSc1ccccn1,active: 1.16 µM,
O=[N+]([O-])c1cccc(COc2ccc(CN3CCCCC3)cc2)c1,active: 20.6 µM,
Cc1cc(Cl)c(S(=O)(=O)N2CCCC2)cc1OCC(=O)NC1CCCCC1,active: 14.6 µM,
CCOC(=O)N1CCC(n2c(SCC(=O)c3ccccc3)nc3ccsc3c2=O)CC1,active: 2.59 µM,
COc1ccc(C(=O)NCCc2c[nH]c3ccccc23)cc1,,inconclusive: -32.3% [inhibitor]
CCCCC/C=C/C1=CC(=O)C[C@H](c2ccc3c(c2)OCO3)C1,inactive,
Cc1ccc(C)c(NC(=O)CSc2nncn3c2cc2sccc23)c1,"inconclusive [inhibitor, partial curve, poor fit]",
Cc1cc(NC(=O)CSc2sc3c(O)cc(=O)[nH]c3c2C#N)ccc1Br,inactive,
COc1ccc(C(C)=O)cc1Cn1c(C)c(C(=O)NCc2ccc(C(C)C)cc2)sc1=O,"inconclusive [inhibitor, single point]",
CCOc1cc(NC(=O)c2ccccc2OC)c(OCC)cc1NC(=O)c1ccccc1,"inconclusive [inhibitor, full curve]",
COc1cccc(-c2cnc3c(NC(C)=O)cc(-c4ccc(C(=O)NC5CC5)cc4)cn23)c1,"inconclusive [inhibitor, single point]",
COc1ccc(NC(=O)CN(C)C(=O)c2cc3c(s2)CCCCC3)cc1,"inconclusive [inhibitor, single point]",
Cn1nc(CC(=O)Nc2cccc3ncccc23)c2ccccc2c1=O,active: 13 µM,
Cc1ccc(CCNc2nc3ccccc3c3nc(-c4ccccc4)nn23)cc1,"inconclusive [inhibitor, single point]",
COc1ccc(CCNC(=O)C(C)n2nc(C)n3c(cc4occc43)c2=O)cc1OC (stereo unspecified),inactive,
O=C(OCC(=O)N(CCc1ccccc1)Cc1ccccc1)c1cc(S(=O)(=O)N2CCOCC2)ccc1F,"inconclusive [inhibitor, partial curve]",
CCOc1ccc(C2c3[nH]c4ccccc4c3C[C@H]3C(=O)N(C4CCN(Cc5ccccc5)CC4)CC(=O)N23)cc1OC (stereo partly specified),"inconclusive [inhibitor, single point]",
COc1ccc2[nH]c3c(c2c1)CCN1C(=O)C(CC(=O)NCCc2ccccn2)C[C@H](C(=O)N2CCOCC2)[C@@]31C (stereo partly specified),inactive,
CC1(C(=O)O)CCCN1C(=O)c1cccc(C(F)(F)F)c1 (stereo unspecified),inactive,
